# In the supplement of paper PMC8728848:
# This is one part of the list.
# B1: GS7807P-bth-537-23-537 (Bacteroides thetaiotaomicron) (protein)
# chain: NYENINSNPYEAPDLSADGYALGSAMNNLAGCVVSPDVNTAQFTDCLLGGPLGGYFADSNAGFTETISNFNPKDDWSRVFLKSDKIIPTLYSNLTQVKLVSQNTNDPVPYAIAQVIKVAAMHRVTDAFGPIPYSQIGANGEIATPYDSQEVTYNTFFDELNAAIATLNENSNEQLVPTADYIYKGDVKKWIRFANSLKLRLAIRIAYANPVKAQQMAEEAVNPANGGVIESNADNATWNYFETSQNPIYVATRYNQVQTSDHGGVPCLTGGDTHAAADIICYMNGYKDNRREKFFTKSEWAGQDYVGMRRGIVIPELKTTGHKYSGVNIAPTSPLYWMNAAEVAFLRAEGQAVFNFSMGGTAESFYNQGIRLSFEQWGADGVEDYLKDDVNKPTAYTDPAGTNTYQNALSNITIKWNDSADKEEKQERIIVQKWIANWQLGNEAWADFRRTGYPKLIPVKENKSGGVVDSEKGARRMPYPLDEFVSNKANVEYAIANYLHGADNMATDVWWASKK
# Legend:
# Experiment in all cases: glycan array binding signal (z-score within array); higher = stronger binding
# Conditions in all cases: glycan notation: IUPAC condensed, linker removed
# [1] = biological target: Fuc(a1-2)Gal(b1-4)GlcNAc(b1-3)Gal(b1-4)GlcNAc(b1-3)Gal(b1-4)GlcNAc
# How it was run: (§1)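 Glycan array data were curated from 3228 arrays in the Consortium for Functional Glycomics database and kept only where the protein sequence was available. Glycan names were converted to IUPAC-condensed notation, and columns mapping to the same glycan were averaged. The binding signal is a within-array Z-score, averaged across arrays of the same protein sequence at different concentrations or buffers and across linkers. Negative Z-scores can be read as non-binding.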
# [2] = biological target: Fuc(a1-2)Gal(b1-4)GlcNAc(b1-3)GalNAc
# How it was run: as §1
# [3] = biological target: Fuc(a1-2)Gal(b1-4)GlcNAc(b1-3)[Fuc(a1-2)Gal(b1-4)GlcNAc(b1-6)]GalNAc
# How it was run: as §1
# [4] = biological target: Fuc(a1-2)Gal(b1-4)GlcNAc(b1-3)[Fuc(a1-3)[Gal(b1-4)]GlcNAc(b1-6)]Gal(b1-4)Glc
# How it was run: as §1
# [5] = biological target: Fuc(a1-2)Gal(b1-4)GlcNAc(b1-6)GalNAc
# How it was run: as §1
# [6] = biological target: Fuc(a1-2)Gal(b1-4)GlcNAc6S
# How it was run: as §1
# [7] = biological target: Fuc(a1-2)Gal(b1-4)[Fuc(a1-3)]GlcNAc
# How it was run: as §1
# [8] = biological target: Fuc(a1-2)Gal(b1-4)[Fuc(a1-3)]GlcNAc(b1-2)Man(a1-3)[Fuc(a1-2)Gal(b1-4)[Fuc(a1-3)]GlcNAc(b1-2)Man(a1-6)]Man(b1-4)GlcNAc(b1-4)[Fuc(a1-6)]GlcNAc
# How it was run: as §1
# [9] = biological target: Fuc(a1-2)Gal(b1-4)[Fuc(a1-3)]GlcNAc(b1-2)[Fuc(a1-2)Gal(b1-4)[Fuc(a1-3)]GlcNAc(b1-4)]Man(a1-3)[Fuc(a1-2)Gal(b1-4)[Fuc(a1-3)]GlcNAc(b1-2)Man(a1-6)]Man(b1-4)GlcNAc(b1-4)GlcNAc
# How it was run: as §1
# [10] = biological target: Fuc(a1-2)Gal(b1-4)[Fuc(a1-3)]GlcNAc(b1-3)Gal(b1-4)[Fuc(a1-3)]GlcNAc
# How it was run: as §1
# [11] = biological target: Fuc(a1-2)Gal(b1-4)[Fuc(a1-3)]GlcNAc(b1-3)Gal(b1-4)[Fuc(a1-3)]GlcNAc(b1-3)Gal(b1-4)[Fuc(a1-3)]GlcNAc
# How it was run: as §1
# [12] = biological target: Fuc(a1-2)Gal(b1-4)[Fuc(a1-3)]GlcNAc(b1-3)GalNAc
# How it was run: as §1
# [13] = biological target: Fuc(a1-2)Gal(b1-4)[Fuc(a1-3)]GlcNAc(b1-3)[Neu5Ac(a2-6)Gal(b1-4)GlcNAc(b1-6)]Gal(b1-4)Glc
# How it was run: as §1
# [14] = biological target: Fuc(a1-2)Gal3S(b1-4)GlcNAc
# How it was run: as §1
# [15] = biological target: Fuc(a1-2)Gal6S(b1-3)GlcNAc
# How it was run: as §1
# [16] = biological target: Fuc(a1-2)Gal6S(b1-3)GlcNAc6S
# How it was run: as §1
# Fuc(a1-2)Gal6S(b1-4)Glc = biological target: Fuc(a1-2)Gal6S(b1-4)Glc
# How it was run: as §1
# [17] = biological target: Fuc(a1-2)Gal6S(b1-4)Glc6S
# How it was run: as §1
# Fuc(a1-2)[Gal(a1-3)]Gal = biological target: Fuc(a1-2)[Gal(a1-3)]Gal
# How it was run: as §1
# [18] = biological target: Fuc(a1-2)[Gal(a1-3)]Gal(b1-3)GalNAc
# How it was run: as §1
# [19] = biological target: Fuc(a1-2)[Gal(a1-3)]Gal(b1-3)GalNAc(b1-3)Gal(a1-4)Gal(b1-4)Glc
# How it was run: as §1
# [20] = biological target: Fuc(a1-2)[Gal(a1-3)]Gal(b1-3)GlcNAc
# How it was run: as §1
# [21] = biological target: Fuc(a1-2)[Gal(a1-3)]Gal(b1-3)GlcNAc(b1-2)Man(a1-3)[Fuc(a1-2)[Gal(a1-3)]Gal(b1-3)GlcNAc(b1-2)Man(a1-6)]Man(b1-4)GlcNAc(b1-4)GlcNAc
# How it was run: as §1
# [22] = biological target: Fuc(a1-2)[Gal(a1-3)]Gal(b1-3)GlcNAc(b1-2)Man(a1-3)[Fuc(a1-2)[Gal(a1-3)]Gal(b1-3)GlcNAc(b1-2)Man(a1-6)]Man(b1-4)GlcNAc(b1-4)[Fuc(a1-6)]GlcNAc
# How it was run: as §1
# [23] = biological target: Fuc(a1-2)[Gal(a1-3)]Gal(b1-3)GlcNAc(b1-3)GalNAc
# How it was run: as §1
# [24] = biological target: Fuc(a1-2)[Gal(a1-3)]Gal(b1-3)GlcNAc(b1-6)GalNAc
# How it was run: as §1
# [25] = biological target: Fuc(a1-2)[Gal(a1-3)]Gal(b1-4)Glc
# How it was run: as §1
# [26] = biological target: Fuc(a1-2)[Gal(a1-3)]Gal(b1-4)GlcNAc
# How it was run: as §1
# [27] = biological target: Fuc(a1-2)[Gal(a1-3)]Gal(b1-4)GlcNAc(b1-2)Man
# How it was run: as §1
# [28] = biological target: Fuc(a1-2)[Gal(a1-3)]Gal(b1-4)GlcNAc(b1-2)Man(a1-3)[Fuc(a1-2)[Gal(a1-3)]Gal(b1-4)GlcNAc(b1-2)Man(a1-6)]Man(b1-4)GlcNAc(b1-4)GlcNAc
# How it was run: as §1
binder,measurement,setting,value
B1,glycan array binding signal (z-score),[1],-0.346
same,glycan array binding signal (z-score),[2],-0.284
same,glycan array binding signal (z-score),[3],-0.005
same,glycan array binding signal (z-score),[4],-0.146
same,glycan array binding signal (z-score),[5],-0.35
same,glycan array binding signal (z-score),[6],-0.342
same,glycan array binding signal (z-score),[7],-0.36
same,glycan array binding signal (z-score),[8],-0.337
same,glycan array binding signal (z-score),[9],-0.094
same,glycan array binding signal (z-score),[10],-0.386
same,glycan array binding signal (z-score),[11],0.061
same,glycan array binding signal (z-score),[12],-0.115
same,glycan array binding signal (z-score),[13],-0.322
same,glycan array binding signal (z-score),[14],-0.396
same,glycan array binding signal (z-score),[15],-0.359
same,glycan array binding signal (z-score),[16],-0.329
same,glycan array binding signal (z-score),Fuc(a1-2)Gal6S(b1-4)Glc,0.294
same,glycan array binding signal (z-score),[17],-0.176
same,glycan array binding signal (z-score),Fuc(a1-2)[Gal(a1-3)]Gal,-0.241
same,glycan array binding signal (z-score),[18],-0.331
same,glycan array binding signal (z-score),[19],-0.394
same,glycan array binding signal (z-score),[20],-0.36
same,glycan array binding signal (z-score),[21],-0.375
same,glycan array binding signal (z-score),[22],-0.286
same,glycan array binding signal (z-score),[23],-0.325
same,glycan array binding signal (z-score),[24],2.94
same,glycan array binding signal (z-score),[25],-0.389
same,glycan array binding signal (z-score),[26],-0.359
same,glycan array binding signal (z-score),[27],-0.195
same,glycan array binding signal (z-score),[28],0.136
